Results taken from publication PMC10668032.
The other results are listed elsewhere or left out. At the low end of the ranking the order means little.

Each sequence was assayed against SIX1 homeodomain (reference allele) (UniProt Q15475) (assay: universal protein binding microarray). Conditions: Universal all-10-mer PBM (8x60K, AMADID 030236), 300 nM GST-tagged protein, Alexa Fluor 488 anti-GST; buffer, salt, pH and temperature not stated; high values mean tight binding; most listed sequences are background and not binding sites; double strand, one strand shown.

Sequence | binding signal
CAGCTTCC | -0.171 E-score
GCGGTTAC | -0.0321 E-score
AGCTGCCT | -0.193 E-score
GATTCCTA | -0.0441 E-score
CAGATAAC | 0.191 E-score
ACCCAGCC | -0.153 E-score
GCTGTATA | 0.232 E-score
GGGGTACA | 0.143 E-score
AGGGCGGA | 0.0721 E-score
CTTCTACA | 0.0601 E-score
CTAGATTC | -0.0563 E-score
CGTACAAG | -0.113 E-score
GCCTAACA | -0.104 E-score
AATTCTCA | -0.124 E-score
GGCTTTCA | 0.00887 E-score
GACCTTAA | -0.19 E-score
ACCTACTC | -0.112 E-score
CTCCTCTC | -0.0704 E-score
ACGTGTGA | -0.0277 E-score
CGCGCCCC | 0.0198 E-score
AAGTTAGC | -0.266 E-score
GGAACGGA | -0.0283 E-score
GGAGTAAA | 0.146 E-score
TGGCTAAA | -0.206 E-score
GACAGGGA | 0.0206 E-score

Sequence | binding signal
GGTGAGAC | 0.153 E-score
GAGTTCGC | -0.221 E-score
ACTATAAG | -0.0155 E-score
CAATCATC | -0.095 E-score
CATGTCTC | 0.151 E-score
TATAACCA | 0.0944 E-score
CGCGCTAG | -0.0744 E-score
CTTTGTCC | -0.242 E-score
GGGTAGCA | 0.0391 E-score
AAGAAGGT | -0.0425 E-score
CACACTAC | 0.0422 E-score
AGAAACGC | -0.138 E-score
ATCTTTAC | -0.0176 E-score
TAGGAAGA | -0.0973 E-score
CTAGGTAC | -0.175 E-score
AATAATTA | -0.115 E-score
AAACTACC | -0.212 E-score
TCCTGAGA | 0.0926 E-score
GCCCCTTA | -0.0427 E-score
AGTTTCCC | -0.171 E-score
ACGATTTA | 0.0068 E-score
ATCACCGG | 0.291 E-score
ATTTAAAG | -0.0093 E-score
GGAGACCA | -0.0281 E-score
AGTACGTG | -0.115 E-score

Sequence | binding signal
ACTCCAAT | -0.0381 E-score
CGGTACGA | 0.125 E-score
CAAATCGA | -0.164 E-score
ACACTAAG | -0.0747 E-score
AGCGCAGA | -0.116 E-score
AGAAGTTG | -0.218 E-score
AGAAATCG | -0.183 E-score
ACTGCTCC | -0.254 E-score
ATGTGAAA | -0.162 E-score
AAGATTCG | -0.0816 E-score
ACCAGTAG | 0.00605 E-score
ATCCAAGG | 0.173 E-score
CACTCATG | 0.187 E-score
GAACAAGA | 0.0989 E-score
ATCTCTAA | 0.0729 E-score
AAGCGATG | -0.17 E-score
GATGTACA | -0.0623 E-score
AAACCTCT | -0.00703 E-score
AACGACGG | -0.151 E-score
AAGAGGTG | 0.0276 E-score
GGGATCGA | 0.385 E-score
AGGTTTGA | -0.158 E-score
AGCAGGGG | -0.0745 E-score
AAACCGCG | -0.132 E-score
ACTCATAA | 0.0882 E-score

Sequence | binding signal
GATCGTAC | 0.274 E-score
ACCCATGC | 0.00469 E-score
CACCGATG | 0.215 E-score
CCTTACCG | -0.171 E-score
AAGAGCCC | -0.353 E-score
CGCGGGCA | 0.222 E-score
CAAGGTTC | -0.0909 E-score
GACAAATC | -0.076 E-score
CGACGCCC | -0.098 E-score
CCGCGACA | 0.101 E-score
TCTCGAGA | 0.112 E-score
CGCGTGCA | -0.237 E-score
AATAGAAT | 0.0115 E-score
GCTCCGAA | 0.0245 E-score
CCGAGAGA | 0.0968 E-score
AAGCTATC | 0.277 E-score
AGACAGCG | -0.293 E-score
GGACGCCA | -0.176 E-score
CCACAGCG | -0.0271 E-score
AATTGGCC | -0.28 E-score
CGCGAGAG | -0.0604 E-score
ACCCAACT | -0.0908 E-score
TGCCCGCA | -0.167 E-score
ACTAACCA | -0.0597 E-score
CAAGCTCC | -0.218 E-score

Sequence | binding signal
ATCCTCAC | 0.234 E-score
ACTCTACA | 0.0687 E-score
ATCGCTGC | 0.132 E-score
CCCCAGAA | 0.093 E-score
CCTTCAGA | -0.106 E-score
ACATCTGA | 0.0568 E-score
CTAACCAG | -0.162 E-score
GCCAGGGA | 0.0328 E-score
CGGCAACA | -0.0521 E-score
CAGATGCG | 0.0858 E-score
ATAGTTTG | 0.0746 E-score
GTTCAAAA | -0.306 E-score
CATATCGG | 0.401 E-score
AGCATTTC | -0.235 E-score
CAGAAGGA | -0.0203 E-score
CGCTCTAC | -0.0295 E-score
CATCAGGC | -0.139 E-score
AGATACCG | 0.37 E-score
TATAGAGA | 0.12 E-score
ATTTCAAG | -0.289 E-score
ATAATGGA | 0.0315 E-score
GAAAAATC | 0.0109 E-score
GAGAGTGA | -0.033 E-score
AGAGAAGG | 0.00404 E-score
CTCTAACA | -0.0355 E-score

Sequence | binding signal
ACGGAGAT | 0.195 E-score
CAGATTAC | 0.187 E-score
CACAGTTC | -0.0801 E-score
CCGTGCCA | -0.119 E-score
CAGGTAAC | -0.0125 E-score
CGTTAGAA | -0.0539 E-score
GGAATTAA | 0.0483 E-score
ACTGTATG | -0.0721 E-score
CTACCGAA | -0.117 E-score
AAGGCTTG | -0.21 E-score
CCGCCCAG | 0.071 E-score
AGTTCCAA | -0.169 E-score
ACTTGGGC | -0.279 E-score
AATGTGCT | -0.241 E-score
CTCAGGAA | 0.0307 E-score
ATTTATCC | 0.198 E-score
ATCCAAAC | 0.175 E-score
GACCAGAA | -0.0271 E-score
GAGCCCCA | 0.0929 E-score
CGCCGGAG | 0.00572 E-score
CGATCCAA | 0.143 E-score
CTGTAGTC | -0.148 E-score
CGCCCAAG | -0.121 E-score
GCATCGAC | 0.0744 E-score
CAAAGTAC | -0.104 E-score

Sequence | binding signal
AACAGGGC | -0.128 E-score
AGCGACGG | -0.0774 E-score
GCGAGTGA | 0.0172 E-score
ATACATAC | 0.325 E-score
CAATGAAC | -0.158 E-score
ACGGGCTG | -0.0887 E-score
GACGCGCA | -0.15 E-score
TAAGCCTA | 0.0585 E-score
CATCTTAC | -0.0232 E-score
CCATTGAC | -0.0605 E-score
ATCCGAAT | 0.313 E-score
CGCTGGGC | -0.165 E-score
ATATAATA | 0.322 E-score
AGATGGAA | 0.124 E-score
CCGCCTGA | 0.228 E-score
ATGGAGAA | -0.0514 E-score
GGGACTCA | -0.321 E-score
CGCGAGAC | 0.0976 E-score
GCCGGCTA | 0.036 E-score
CCGAGGGA | -0.0027 E-score
AAGAAACC | -0.0155 E-score
AAACTCTA | -0.209 E-score
